Assay results: the supplement of paper PMC8728848
Some of the results follow.

Legend:
Test in all cases: glycan array binding signal (z-score within array); higher = stronger binding
Conditions in all cases: glycan notation: IUPAC condensed, linker removed
[1] = biological target: Neu5Ac(a2-3)Gal(b1-4)GlcNAc(b1-6)GalNAc
In short: (§1)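 The binding signal is a Z-score computed within each array. Data were drawn from 3228 arrays in the Consortium for Functional Glycomics database, restricted to those with a known protein sequence. Scores were averaged over arrays of the same protein sequence at different concentrations or buffers, and over linkers, and negative values can be taken as non-binding.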

[2] = biological target: Neu5Ac(a2-3)Gal(b1-4)GlcNAc(b1-6)[Gal(b1-3)]GalNAc
In short: as §1

[3] = biological target: Neu5Ac(a2-3)Gal(b1-4)GlcNAc(b1-6)[Neu5Ac(a2-3)Gal(b1-3)]GalNAc
In short: as §1

[4] = biological target: Neu5Ac(a2-3)Gal(b1-4)GlcNAc6S
In short: as §1

[5] = biological target: Neu5Ac(a2-3)Gal(b1-4)[Fuc(a1-3)]GlcNAc
In short: as §1

[6] = biological target: Neu5Ac(a2-3)Gal(b1-4)[Fuc(a1-3)]GlcNAc(b1-2)Man
In short: as §1

[7] = biological target: Neu5Ac(a2-3)Gal(b1-4)[Fuc(a1-3)]GlcNAc(b1-3)Gal
In short: as §1

[8] = biological target: Neu5Ac(a2-3)Gal(b1-4)[Fuc(a1-3)]GlcNAc(b1-3)Gal(b1-4)GlcNAc
In short: as §1

[9] = biological target: Neu5Ac(a2-3)Gal(b1-4)[Fuc(a1-3)]GlcNAc(b1-3)Gal(b1-4)[Fuc(a1-3)]GlcNAc(b1-3)Gal(b1-4)[Fuc(a1-3)]GlcNAc
In short: as §1

[10] = biological target: Neu5Ac(a2-3)Gal(b1-4)[Fuc(a1-3)]GlcNAc(b1-3)GalNAc
In short: as §1

[11] = biological target: Neu5Ac(a2-3)Gal(b1-4)[Fuc(a1-3)]GlcNAc(b1-6)[Gal(b1-3)]GalNAc
In short: as §1

[12] = biological target: Neu5Ac(a2-3)Gal(b1-4)[Fuc(a1-3)]GlcNAc(b1-6)[Neu5Ac(a2-3)Gal(b1-3)]GalNAc
In short: as §1

[13] = biological target: Neu5Ac(a2-3)Gal(b1-4)[Fuc(a1-3)]GlcNAc6S
In short: as §1

[14] = biological target: Neu5Ac(a2-3)Gal6S(b1-4)GlcNAc
In short: as §1

[15] = biological target: Neu5Ac(a2-3)Gal6S(b1-4)[Fuc(a1-3)]GlcNAc
In short: as §1

Neu5Ac(a2-3)GalNAc = biological target: Neu5Ac(a2-3)GalNAc
In short: as §1

[16] = biological target: Neu5Ac(a2-3)GalNAc(b1-4)GlcNAc
In short: as §1

[17] = biological target: Neu5Ac(a2-3)[GalNAc(b1-4)]Gal(b1-4)Glc
In short: as §1

[18] = biological target: Neu5Ac(a2-3)[GalNAc(b1-4)]Gal(b1-4)GlcNAc
In short: as §1

[19] = biological target: Neu5Ac(a2-3)[GalNAc(b1-4)]Gal(b1-4)GlcNAc(b1-3)GalNAc
In short: as §1

[20] = biological target: Neu5Ac(a2-3)[Neu5Ac(a2-6)]GalNAc
In short: as §1

Neu5Ac(a2-6)Gal = biological target: Neu5Ac(a2-6)Gal
In short: as §1

[21] = biological target: Neu5Ac(a2-6)Gal(b1-3)GlcNAc(b1-3)[Gal(b1-4)GlcNAc(b1-6)]Gal(b1-4)Glc
In short: as §1

Neu5Ac(a2-6)Gal(b1-4)Glc = biological target: Neu5Ac(a2-6)Gal(b1-4)Glc
In short: as §1

[22] = biological target: Neu5Ac(a2-6)Gal(b1-4)GlcNAc
In short: as §1

[23] = biological target: Neu5Ac(a2-6)Gal(b1-4)GlcNAc(b1-2)Man
In short: as §1

[24] = biological target: Neu5Ac(a2-6)Gal(b1-4)GlcNAc(b1-2)Man(a1-3)Man(b1-4)GlcNAc(b1-4)GlcNAc
In short: as §1

[25] = biological target: Neu5Ac(a2-6)Gal(b1-4)GlcNAc(b1-2)Man(a1-3)[Gal(b1-4)GlcNAc(b1-2)Man(a1-6)]Man(b1-4)GlcNAc(b1-4)GlcNAc
In short: as §1

[26] = biological target: Neu5Ac(a2-6)Gal(b1-4)GlcNAc(b1-2)Man(a1-3)[GlcNAc(b1-2)Man(a1-6)]Man(b1-4)GlcNAc(b1-4)GlcNAc
In short: as §1

[27] = biological target: Neu5Ac(a2-6)Gal(b1-4)GlcNAc(b1-2)Man(a1-3)[GlcNAc(b1-4)][Neu5Ac(a2-6)Gal(b1-4)GlcNAc(b1-2)Man(a1-6)]Man(b1-4)GlcNAc(b1-4)GlcNAc
In short: as §1

[28] = biological target: Neu5Ac(a2-6)Gal(b1-4)GlcNAc(b1-2)Man(a1-3)[Man(a1-6)]Man(b1-4)GlcNAc(b1-4)GlcNAc
In short: as §1

B1: Clec18C (Homo sapiens) (protein)
chain: MLHPETSPGRGHLLAVLLALLGTAWAEVWPPQLQEQAPMAGALNRKESFLLLSLHNRLRSWVQPPAADMRRLDWSDSLAQLAQARAALCGTPTPSLASGLWRTLQVGWNMQLLPAGLVSFVEVVSLWFAEGQRYSHAAGECARNATCTHYTQLVWATSSQLGCGRHLCSAGQAAIEAFVCAYSPRGNWEVNGKTIVPYKKGAWCSLCTASVSGCFKAWDHAGGLCEVPRNPCRMSCQNHGRLNISTCHCHCPPGYTGRYCQVRCSLQCVHGRLREEECSCVCDIGYGGAQCATKVHFPFHTCDLRIDGDCFMVSSEADTYYRARMKCQRKGGVLAQIKSQKVQDILAFYLGRLETTNEVIDSDFETRNFWIGLTYKTAKDSFRWATGEHQAFTSFAFGQPDNHGFGNCVELQASAAFNWNNQRCKTRNRYICQFAQEHISRWGPGS
B1 was tested, and the “glycan array binding signal (z-score)” value [1] was 3.92, the “glycan array binding signal (z-score)” value [2] was -0.357 and the “glycan array binding signal (z-score)” value [3] was -0.585. The “glycan array binding signal (z-score)” value [4] was -0.455, the “glycan array binding signal (z-score)” value [5] was -0.378 and the “glycan array binding signal (z-score)” value [6] was -0.616. For the same binder, the “glycan array binding signal (z-score)” value [7] was -0.523, the “glycan array binding signal (z-score)” value [8] was -0.363 and the “glycan array binding signal (z-score)” value [9] was 0.997. The “glycan array binding signal (z-score)” value [10] was -0.116, the “glycan array binding signal (z-score)” value [11] was -0.465 and the “glycan array binding signal (z-score)” value [12] was -0.216. For the same binder, the “glycan array binding signal (z-score)” value [13] was -0.571, the “glycan array binding signal (z-score)” value [14] was -0.408 and the “glycan array binding signal (z-score)” value [15] was -0.56. For the same binder, the “glycan array binding signal (z-score)” value (Neu5Ac(a2-3)GalNAc) was -0.575, the “glycan array binding signal (z-score)” value [16] was -0.537 and the “glycan array binding signal (z-score)” value [17] was -0.217. For the same binder, the “glycan array binding signal (z-score)” value [18] was -0.067, the “glycan array binding signal (z-score)” value [19] was 0.201 and the “glycan array binding signal (z-score)” value [20] was -0.495. The “glycan array binding signal (z-score)” value (Neu5Ac(a2-6)Gal) was -0.318, the “glycan array binding signal (z-score)” value [21] was -0.234 and the “glycan array binding signal (z-score)” value (Neu5Ac(a2-6)Gal(b1-4)Glc) was -0.354. For the same binder, the “glycan array binding signal (z-score)” value [22] was -0.406, the “glycan array binding signal (z-score)” value [23] was -0.59 and the “glycan array binding signal (z-score)” value [24] was 0.624. The “glycan array binding signal (z-score)” value [25] was 0.359, the “glycan array binding signal (z-score)” value [26] was -0.556 and the “glycan array binding signal (z-score)” value [27] was -0.428. For the same binder, the “glycan array binding signal (z-score)” value [28] was -0.24.
